# Measurements taken from PubChem BioAssay AID662 (National Center for Advancing Translational Sciences (NCATS), 2007).
# Several values for one entry are separate records, joined by “and”; a condition that tells them apart may be missing. Equal values may be shown once. Hit rate of the full screen: of about 71,000 compounds, about 1,800 (2.5%) were called active. Inconclusive means that the source gave no clear call. Such entries were picked first, then a sample of the others. Calls follow the shape of the dose curve; as a rule, active = well fitted activation curve with a large enough effect in the signal ratio, with a control signal flat (not every such curve was filed as active); inconclusive = small, poorly fitted or top-dose-only effect, or effect the other way, or a change in a side signal; inactive = flat fitted curve, though single readings scatter; the % refers to the signal ratio. Potencies beside an inconclusive call are fits to weak or partial responses and may not hold up.
# Assay: Cell signaling CRE-BLA (Fsk stim); as to activity change, negative = inhibition: % of control where 0% means no effect
# Settings: CHO CRE-bla reporter (cAMP response element driving beta-lactamase), forskolin EC10, beta-lactamase ratio
# From the text: NIH Molecular Libraries Screening Centers Network [MLSCN]
# NIH Chemical Genomics Center [NCGC]
# Assay Provider: Marshall W. Nirenberg, U.S. National heart lung & blood institute
# Memories persist for different lengths of time, from seconds or minutes to a lifetime. There are two kinds of memory: short-term memory (STM) and long-term memory (LTM). STM lasts for minutes to hours, which maybe mediated by modifications of molecules involved in synaptic functions. LTM lasts for days or longer, and may be due to the formation of new synapses or restructuring of existing synapses. LTM, but not STM, requires gene transcription and synthesis of proteins. CREB (cyclic-AMP Responsive Element Binding Protein) is one of the candidates plays an important role for enhancement of some types of LTM. CREB, a family of transcription factors, regulates the transcription of genes containing cAMP Responsive Elements (CRE). CRE is a nucleotide sequence often found in the promoter regions of genes that are binding sites for CREB.
# Using a beta-lactamase reporter-gene under control of cAMP responsive element, a cell-based assay [CellSensor(TM) CRE-bla CHO developed by Invitrogen Corp.] was used to measure forskolin-induced signaling. Library compounds were measured for their ability to modulate positively or negatively the action of EC10 NKH 477, a water soluble forskolin, on reporter gene activity. Compounds were screened in a titration series in 1536-well format. Positive and negative modulators were identified based on the AC50 values derived from the screening data.
# NCGC Assay Protocol Summary
# 2000 cells/5uL in Opti-MEM medium containing 0.5% dialyzed FBS, 0.1 mM NEAA, 1 mM sodium pyruvate and 10 mM HEPES was dispensed into 1536-well plates and cells were cultured at 37 degrees Celsius overnight. […] And then the plates were incubated at 37 degrees Celsius for 3 hours. 1 uL of CCF4-dye mixture was added to each well. After incubated at room temperature for 2 hours the plates were measured on an EnVision plate reader at Excitation 405nm, Emission1=460nm and Emission 2=530nm. The %Activity was determined from the ratio of 460nm/530nm.
# Keywords: NIH Roadmap, MLSCN, MLSMR, qHTS, NCGC, CRE, beta-lactamase reporter-gene assay.
# [1] = activity change, negative = inhibition: at 38.2 µM (top of the series) unless noted
# Potency is read from the fitted curve at half-maximal effect; tags tell the direction and shape of the fitted curve.
compound,measurement,setting,value
O=C(O)CCS(=O)(=O)Cc1cccc(Cl)c1,"activity change, negative = inhibition",[1],inconclusive: 15.9%
Oc1c(Cl)cc(Cl)c(Cl)c1Cc1c(O)c(Cl)cc(Cl)c1Cl,Potency,[1],"inconclusive: 0.316 µM [falling, full curve]"
CC(C)[C@@H]1N[C@]2(C(=O)Nc3ccccc32)[C@@H]2C(=O)N(c3cccc(C(F)(F)F)c3)C(=O)[C@@H]21,"activity change, negative = inhibition",[1],inconclusive: -11.9%
Cc1ccc(OC(=O)NC2CCS(=O)(=O)C2)cc1C (centres undefined),"activity change, negative = inhibition",[1],inconclusive: 25%
Cc1ccc(CNC(=O)CN(C)S(=O)(=O)c2cccc3cccnc23)cc1,Potency,[1],inactive
COc1ccc(-n2c(SCC(=O)c3c(N)n(C)c(=O)n(C)c3=O)nc3ccccc32)cc1,Potency,[1],"inconclusive: 7.94 µM [rising, partial curve]"
c1ccc(COCc2ccccc2)cc1,Potency,[1],inactive
CCCCC(=O)OCCNC(=O)c1cc2ccccc2oc1=O,"activity change, negative = inhibition",[1],inconclusive: 39.2% [at 7.6 µM]
CC(=O)Nc1ccc(NS(=O)(=O)c2cn(C)c(=O)n(C)c2=O)cc1,Potency,[1],inactive
COc1cccc(N2C(=O)C3C(C2=O)C2C=CC3C23CC3)c1 (centres undefined),"activity change, negative = inhibition",[1],inconclusive: -2.53%
O=C(COc1ncnc2ccccc12)N1CCOCC1,"activity change, negative = inhibition",[1],inconclusive: -2.88%
COc1ccc(-c2noc(CCC(=O)Nc3cc(Cl)c(OC)cc3OC)n2)cc1,"activity change, negative = inhibition",[1],inconclusive: -8.47%
Cc1c(C(=O)NC(C)C)oc2c1-c1[nH]ncc1CC2,Potency,[1],inactive
COc1ccc(CCNC(=O)C2=COCCO2)cc1,"activity change, negative = inhibition",[1],inconclusive: -1.27%
COc1ccc(-c2cc(C(F)F)n3ncc(C(=O)N4CCSCC4)c3n2)cc1,Potency,[1],"inconclusive: 12.6 µM [rising, partial curve]"
CC(C)(N)C(=O)N[C@@H]1C(=O)N2[C@@H]1SC(C)(C)[C@H]2C(=O)O,"activity change, negative = inhibition",[1],inactive: -1.42% [at 7.6 µM]
CS(=O)(=O)Nc1cccc(-c2ccc3ncnc(NC4CC4)c3c2)c1,Potency,[1],"inconclusive: 10 µM [rising, partial curve]"
O=c1ccc2ccc(OCc3nnc(-c4ccccc4Br)o3)cc2o1,Potency,[1],"inconclusive: 12.6 µM [rising, partial curve]"
CCCn1c(N2CCN(C(=O)N3CCCCC3)CC2)nc2ccccc21,Potency,[1],inactive
COc1ccc(NC(=O)c2cnc3ccccn3c2=O)cc1OC,"activity change, negative = inhibition",[1],inconclusive: 21.1%
COc1cc(C(c2nnnn2C2CCCC2)N2CCc3ccccc3C2)ccc1O (centres undefined),Potency,[1],inactive
COC(=O)c1ccc(NC(=O)c2ccccc2NS(C)(=O)=O)cc1,Potency,[1],inactive
O=C(Nc1nccs1)c1cnccn1,"activity change, negative = inhibition",[1],inconclusive: -1.97%
COc1cccc(-c2nn3c(-c4cc(C)[nH]n4)nnc3s2)c1,Potency,[1],"inconclusive: 6.31 µM [rising, partial curve]"
Cc1c(C(=O)NCc2ccco2)sc2nc(-c3ccccc3)cn12,Potency,[1],"inconclusive: 12.6 µM [rising, partial curve]"
CCOC(=O)c1c(NC(=O)c2cccs2)sc2c1CCN(C(=O)OCC)C2,Potency,[1],"inconclusive: 5.01 µM [rising, partial curve]"
C=Cc1ccc(C=C)cc1,Potency,[1],inactive
O=C1c2ccccc2C(=O)N1SC1CCCCC1,Potency,[1],inactive
O=C(N1CCCCCC1)N1CCN(C(=O)N2CCOCC2)CC1,"activity change, negative = inhibition",[1],inconclusive: -1.57%
Cc1ccc(C(=O)NC2CCCCCC2)o1,Potency,[1],inactive
Cc1cc(Oc2ccc(-c3ccccc3)cc2)nc(N2CCOCC2)n1,"activity change, negative = inhibition",[1],inconclusive: 7.74%
COc1ccc(-c2c3c(=O)n(C)c(=O)n(C)c3cn2-c2cc(OC)ccc2OC)cc1,Potency,[1],"inconclusive: 10 µM [rising, partial curve]"
COC(=O)[C@@H]1[C@@H]2C[C@H]3c4[nH]c5ccccc5c4CCN3C[C@@H]2CC[C@@H]1O,Potency,[1],"inconclusive: 31.6 µM [falling, partial curve, poor fit]"
same,"activity change, negative = inhibition",[1],inconclusive: -17.3% and inconclusive: -10.7%
same,"activity change, negative = inhibition",at 7.6 µM (top of the series),inactive: -3.86%
same,"activity change, negative = inhibition",at 17.1 µM (top of the series),inactive: -6.05% and inactive: -9.04% and inactive: -3.09%
same,"activity change, negative = inhibition",at 38.2 µM (top of the series),inactive: -11.5%
COc1ccc(S(=O)(=O)n2nc(OC(=O)c3ccco3)cc2N)cc1,"activity change, negative = inhibition",[1],inconclusive: -18.6%
CC1(C)Cc2c(sc3c2c(=N)n(Cc2ccco2)c(=O)n3Cc2ccc(F)cc2)CO1,Potency,[1],active: 3.98 µM
Cc1ccc(-n2c(SCC3CCCCO3)nnc2-c2ccco2)cc1 (centres undefined),"activity change, negative = inhibition",[1],inconclusive: -6.29%
c1ccc2c(c1)oc1c(NCCN3CCOCC3)ncnc12,Potency,[1],inactive
O=C(NCc1ccccc1)c1c[nH]c2ccc(S(=O)(=O)Nc3ccc4c(c3)OCCO4)cc2c1=O,Potency,[1],"inconclusive: 5.01 µM [falling, partial curve]"
COC(=O)c1cc(-c2ccc(OC)c(OC)c2)on1,Potency,[1],"inconclusive: 15.8 µM [rising, single point]"
CCCc1cc(-c2ccc(O)c(OCC)c2)c(C#N)c(N)n1,Potency,[1],active: 2 µM
COCCn1c(=O)c(-c2ccc(Cl)cc2)nc2cnc(OCc3ccccc3)nc21,"activity change, negative = inhibition",[1],inconclusive: 19.6%
Cc1ccc(CNc2ccc(N3CCOCC3)c(C(=O)O)c2)s1,Potency,[1],inactive
Cc1nn(Cc2ccccc2Cl)c(C)c1N,"activity change, negative = inhibition",[1],inconclusive: -1.46%
CCOc1ccc(Cc2nc(C)c(CC(=O)N3CCOCC3)c(=O)[nH]2)cc1,"activity change, negative = inhibition",[1],inconclusive: 1.24%
Oc1ccc(/C=C/c2cc(O)cc(O)c2)cc1,Potency,[1],inactive
COC(=O)c1ccc(Oc2nc(C)cc(Oc3ccccc3)n2)cc1,"activity change, negative = inhibition",[1],inconclusive: 22.8%
COC(=O)[C@@]1(Cc2ccc(F)cc2)[C@H]2c3cc(C(=O)N4CCCC4)n(CCO)c3C[C@H]2CN1C(=O)c1ccccc1,Potency,[1],inactive
CCOC(=O)/C=C1\SCC(=O)N1CCOc1cccc(Br)c1,Potency,[1],inactive
Cc1ccc2nc(NC(=O)CN(C)S(=O)(=O)c3cccc4nsnc34)sc2c1,"activity change, negative = inhibition",[1],inconclusive: 0.747%
CC(C)CNS(=O)(=O)c1ccc(CCC(=O)N2CCN(Cc3ccccc3)CC2)cc1,"activity change, negative = inhibition",[1],inconclusive: -0.53%
CN1CCN(c2nc(-c3cccc(NS(C)(=O)=O)c3)nc3ccccc23)CC1,"activity change, negative = inhibition",[1],inconclusive: 25.2%
COC(=O)c1ccc(C(NC(=O)OCc2ccccc2)/C(C)=C/[C@@H](C)C(=O)N2CCN(C)CC2)cc1 (some centres undefined),Potency,[1],inactive
CC(=O)N1CCN(c2cccc(C)c2C)CC1,"activity change, negative = inhibition",[1],inactive: 1.32% [at 7.6 µM]
CN(C)CCO[C@@H](c1ccc(Cl)cc1)c1ccccn1,Potency,[1],inactive
COc1cc(NC(=O)c2ccco2)c(OC)cc1NC(=O)c1cc(OC)c(OC)c(OC)c1,Potency,[1],active: 3.98 µM
CCOC(=O)c1cc2c(=O)n3cccc(C)c3nc2n(CC2CCCO2)c1=NC(C)=O (centres undefined),Potency,[1],active: 10 µM
COC(=O)c1[nH]c2c(c1C)C(=O)CC(c1cc(OC)ccc1OC)C2 (centres undefined),Potency,[1],"inconclusive: 12.6 µM [rising, partial curve]"
CCOc1ccccc1-c1nc(SCC(=O)O)n[nH]1,"activity change, negative = inhibition",[1],inactive: 6.62% [at 7.6 µM]
CCOC(=O)N1CCN(S(=O)(=O)c2ccc3c(c2)CCN3C(=O)C2CC2)CC1,"activity change, negative = inhibition",[1],inconclusive: 27.3%
C=CCn1c(=O)c2ccccc2n2c(SCc3csc(-c4ccccc4)n3)nnc12,Potency,[1],"inconclusive: 3.98 µM [rising, single point]"
Cc1nn(CC(=O)Nc2cccnc2N2CCOCC2)c(=O)c2ccccc12,Potency,[1],inactive
COc1ccc(-c2csc(NC(=O)c3cc(C)on3)c2C#N)cc1OC,Potency,[1],"inconclusive: 2.51 µM [rising, partial curve]"
CCN1C(=O)c2cccc3c(NC(=O)c4ccc(S(=O)(=O)N(C)C)cc4)ccc1c23,Potency,[1],"inconclusive: 0.251 µM [rising, full curve]"
CCOC(=O)c1c(NC(=O)CSc2nnc(-c3ccco3)o2)sc(C(C)=O)c1C,Potency,[1],"inconclusive: 25.1 µM [rising, single point]"
COc1cccc(-c2ccc3ncnc(NCc4cccnc4)c3c2)c1,Potency,[1],inactive
CCOC(=O)c1sc(NC(=S)n2cc(C)cn2)c(C(=O)OCC)c1C,Potency,[1],"inconclusive: 10 µM [rising, single point]"
CC1(C)CN=C(N2CCN(c3ncnc4sc5c(c34)CCCC5)CC2)S1,"activity change, negative = inhibition",[1],inconclusive: -12.5% [at 7.6 µM]
COc1ccc(N(C(=O)c2ccco2)C(C(=O)NC2CCCC2)c2ccc(N(C)C)cc2)cc1OC (centres undefined),Potency,[1],inactive
COC(=O)c1ccc(C(NC(=O)OCc2ccccc2)/C(=C/[C@@H](C)C(=O)NCc2nc3ccccc3s2)c2cccnc2)cc1 (some centres undefined),Potency,[1],inactive
COC(=O)c1[nH]c(C)c(/C(O)=C2\C(=O)C(=O)N(CCN3CCOCC3)C2c2cccs2)c1C (centres undefined),Potency,[1],inactive
COc1ccc(N2CCN(CCNC(=O)c3cccn4c(=O)c5ccc(Cl)cc5nc34)CC2)cc1,Potency,[1],inactive
O=C(c1ccco1)N1CCN(C(=O)C2CCN(S(=O)(=O)c3cccs3)CC2)CC1,"activity change, negative = inhibition",[1],inconclusive: 6.5%
CCn1nnc(-c2ccccc2NS(=O)(=O)c2ccc(C(=O)OC)cc2)n1,Potency,[1],inactive
O=C(O)C1CCCCC1C(=O)Nc1ccccc1F (centres undefined),"activity change, negative = inhibition",[1],inconclusive: -5.86%
COc1cccc(Cn2c(=O)c(-c3cccs3)nc3cncnc32)c1,Potency,[1],"inconclusive: 7.94 µM [rising, partial curve]"
c1nc(N2CCOCC2)c2cc(-c3ccoc3)ccc2n1,"activity change, negative = inhibition",[1],inconclusive: -23.9%
CC1Cc2ccccc2N1C(=O)Cn1c(=O)oc2cc(S(=O)(=O)NC3CCCC3)ccc21 (centres undefined),"activity change, negative = inhibition",[1],inconclusive: 2.02%
O=C(CCN1Cc2ccccc2C1)c1ccc2c(c1)OCCO2,"activity change, negative = inhibition",[1],inconclusive: -28.8%
O=S(=O)(Nc1ccc(N2CCCCC2)cc1)c1cccs1,"activity change, negative = inhibition",[1],inconclusive: 1.81%
Nc1nc(CSc2n[nH]c(-c3ccccc3)n2)nc(Nc2ccccc2)n1,Potency,[1],active: 2 µM
